The supplement of paper PMC8728848
The list shows a part of the results.

Tests used:
Assay in all cases: glycan array binding signal (z-score within array); higher = stronger binding
Conditions in all cases: glycan notation: IUPAC condensed, linker removed
[1] = target: Neu5Ac(a2-6)Gal(b1-4)GlcNAc(b1-3)Gal(b1-4)GlcNAc(b1-3)Gal(b1-4)GlcNAc
In short: (§1)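 From the Consortium for Functional Glycomics database, 3228 arrays were curated, keeping only those whose protein sequence was available. Binding is given as a within-array Z-score averaged across arrays sharing a protein sequence and across linkers. Negative Z-scores can be read as non-binding.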

[2] = target: Neu5Ac(a2-6)Gal(b1-4)GlcNAc(b1-3)Gal(b1-4)[Fuc(a1-3)]GlcNAc(b1-3)Gal(b1-4)[Fuc(a1-3)]GlcNAc
In short: as §1

[3] = target: Neu5Ac(a2-6)Gal(b1-4)GlcNAc(b1-3)GalNAc
In short: as §1

[4] = target: Neu5Ac(a2-6)Gal(b1-4)GlcNAc6S
In short: as §1

Neu5Ac(a2-6)GalNAc = target: Neu5Ac(a2-6)GalNAc
In short: as §1

[5] = target: Neu5Ac(a2-6)GalNAc(b1-4)GlcNAc
In short: as §1

[6] = target: Neu5Ac(a2-6)GlcNAc(b1-4)GlcNAc
In short: as §1

[7] = target: Neu5Ac(a2-6)GlcNAc(b1-4)GlcNAc(b1-4)GlcNAc
In short: as §1

Neu5Ac(a2-8)Neu5Ac = target: Neu5Ac(a2-8)Neu5Ac
In short: as §1

[8] = target: Neu5Ac(a2-8)Neu5Ac(a2-3)Gal(b1-4)Glc
In short: as §1

[9] = target: Neu5Ac(a2-8)Neu5Ac(a2-3)[Gal(b1-3)GalNAc(b1-4)]Gal(b1-4)Glc
In short: as §1

[10] = target: Neu5Ac(a2-8)Neu5Ac(a2-3)[GalNAc(b1-4)]Gal(b1-4)Glc
In short: as §1

[11] = target: Neu5Ac(a2-8)Neu5Ac(a2-8)Neu5Ac
In short: as §1

[12] = target: Neu5Ac(a2-8)Neu5Ac(a2-8)Neu5Ac(a2-3)Gal(b1-4)Glc
In short: as §1

[13] = target: Neu5Ac(a2-8)Neu5Ac(a2-8)Neu5Ac(a2-3)[GalNAc(b1-4)]Gal(b1-4)Glc
In short: as §1

[14] = target: Neu5Ac(a2-8)Neu5Ac(a2-8)Neu5Ac(a2-8)Neu5Ac(a2-3)[GalNAc(b1-4)]Gal(b1-4)Glc
In short: as §1

[15] = target: Neu5Ac(b2-6)Gal(b1-4)GlcNAc
In short: as §1

Neu5Ac(b2-6)GalNAc = target: Neu5Ac(b2-6)GalNAc
In short: as §1

[16] = target: Neu5Ac9Ac(a2-3)Gal(b1-3)GlcNAc
In short: as §1

[17] = target: Neu5Ac9Ac(a2-3)Gal(b1-4)GlcNAc
In short: as §1

[18] = target: Neu5Ac9Ac(a2-6)Gal(b1-4)GlcNAc
In short: as §1

[19] = target: Neu5Gc(a2-3)Gal(b1-3)GlcNAc
In short: as §1

[20] = target: Neu5Gc(a2-3)Gal(b1-3)[Fuc(a1-4)]GlcNAc
In short: as §1

Neu5Gc(a2-3)Gal(b1-4)Glc = target: Neu5Gc(a2-3)Gal(b1-4)Glc
In short: as §1

[21] = target: Neu5Gc(a2-3)Gal(b1-4)GlcNAc
In short: as §1

[22] = target: Neu5Gc(a2-3)Gal(b1-4)[Fuc(a1-3)]GlcNAc
In short: as §1

[23] = target: Neu5Gc(a2-6)Gal(b1-4)GlcNAc
In short: as §1

Neu5Gc(a2-6)GalNAc = target: Neu5Gc(a2-6)GalNAc
In short: as §1

[24] = target: Neu5Gc(b2-6)Gal(b1-4)GlcNAc
In short: as §1

B1: Gal 7 (Canis lupus) (protein)
chain: MAGSSNVPHKTSLPEGIRVGTVMRIRGVVPNKAGRFYVNLLCGEAPGSEAALHFNPRLDESTVVFNTLEQGAWGREERGTGIPFQRGQPFDVLLIATDEGFKAVVGDSEYHHFRYRIPPARVRLLEVGGDLQLESVSVF
glycan array binding signal (z-score) [1]: 3.5
glycan array binding signal (z-score) [2]: -0.214
glycan array binding signal (z-score) [3]: -0.215
glycan array binding signal (z-score) [4]: -0.217
glycan array binding signal (z-score) (Neu5Ac(a2-6)GalNAc): -0.217
glycan array binding signal (z-score) [5]: -0.208
glycan array binding signal (z-score) [6]: -0.208
glycan array binding signal (z-score) [7]: -0.216
glycan array binding signal (z-score) (Neu5Ac(a2-8)Neu5Ac): -0.208
glycan array binding signal (z-score) [8]: -0.207
glycan array binding signal (z-score) [9]: -0.186
glycan array binding signal (z-score) [10]: -0.207
glycan array binding signal (z-score) [11]: -0.211
glycan array binding signal (z-score) [12]: -0.198
glycan array binding signal (z-score) [13]: -0.217
glycan array binding signal (z-score) [14]: -0.198
glycan array binding signal (z-score) [15]: -0.218
glycan array binding signal (z-score) (Neu5Ac(b2-6)GalNAc): -0.208
glycan array binding signal (z-score) [16]: -0.203
glycan array binding signal (z-score) [17]: -0.218
glycan array binding signal (z-score) [18]: -0.216
glycan array binding signal (z-score) [19]: -0.218
glycan array binding signal (z-score) [20]: -0.203
glycan array binding signal (z-score) (Neu5Gc(a2-3)Gal(b1-4)Glc): -0.194
glycan array binding signal (z-score) [21]: -0.217
glycan array binding signal (z-score) [22]: -0.204
glycan array binding signal (z-score) [23]: -0.204
glycan array binding signal (z-score) (Neu5Gc(a2-6)GalNAc): -0.211
glycan array binding signal (z-score) [24]: -0.205
